# In all, about 33,000 sequences were measured (“E-score (-0.5 to 0.5)”: median about -0.035, highest 2% from about 0.34 on). Some of the results follow.
# Target: T1, Mot3 (UniProt P54785)
# T1 sequence: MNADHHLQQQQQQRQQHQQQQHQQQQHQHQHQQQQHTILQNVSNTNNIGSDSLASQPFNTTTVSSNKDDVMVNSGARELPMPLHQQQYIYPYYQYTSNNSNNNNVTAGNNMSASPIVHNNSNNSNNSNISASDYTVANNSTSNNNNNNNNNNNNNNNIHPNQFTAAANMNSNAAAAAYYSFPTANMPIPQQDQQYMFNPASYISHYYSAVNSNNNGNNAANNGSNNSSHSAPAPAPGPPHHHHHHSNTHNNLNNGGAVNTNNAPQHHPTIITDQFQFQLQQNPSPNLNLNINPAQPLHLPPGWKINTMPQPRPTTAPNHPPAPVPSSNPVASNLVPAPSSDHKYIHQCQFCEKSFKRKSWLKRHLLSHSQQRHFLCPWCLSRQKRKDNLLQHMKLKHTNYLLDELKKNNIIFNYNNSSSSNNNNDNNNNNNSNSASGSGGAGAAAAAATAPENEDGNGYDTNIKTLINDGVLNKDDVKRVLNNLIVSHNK
# Experiment: PBM E-score (8-mer binding enrichment) (E-score (-0.5 to 0.5)); higher = stronger / more preferred TF binding; most listed sequences are background and not binding sites
# Settings: protein concentration: 200 nM; construct: GST-full length
# How it was run: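 The E-score, a modified Wilcoxon-Mann-Whitney statistic, was computed by the Universal PBM Analysis Suite for every ungapped eight-base word pooled with its reverse complement. Scans behind it were normalised with masliner after bound GST-tagged yeast transcription factors were detected with fluorescent anti-GST. The proteins, at about 100-200 nM, had been applied to universal all-10-mer Agilent arrays made double-stranded by primer extension.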
row,Sequence,PBM E-score
1,ATCTCCAT,-0.039
2,GGACTGAC,-0.19
3,ATTTATTA,0.137
4,TTTGAAAA,0.276
5,ACAAGCTC,-0.0244
6,CGAAGGAC,-0.03
7,GGCCAGCC,-0.194
8,CACTGTCG,-0.122
9,CGAGGCGC,-0.207
10,AACACCGG,-0.0422
11,AACCGGGG,-0.236
12,AGGGGTAA,-0.0463
13,AGTGAGCA,-0.0508
14,ATCGAGAG,-0.0709
15,CGACGCGC,0.124
16,CGAACCGC,-0.0972
17,TATCATAA,0.0167
18,GACGCGCA,-0.196
19,AATGACGC,0.119
20,ACCCTACC,-0.188
21,TACGATGA,0.107
22,AGAGCGTA,-0.0554
23,CTTGTGCA,0.176
24,CCTGTAGC,0.192
25,GCCTTAAC,0.269

row,Sequence,PBM E-score
1,CTCTGGGC,-0.0902
2,ACGTAAAG,0.243
3,AAACGACA,0.221
4,CCTCTGCG,-0.188
5,AGTATTGA,0.0762
6,TGTGAAAA,0.18
7,ACATATAG,0.229
8,AAGGAACT,0.416
9,CTCCACCC,-0.349
10,GATTGCAC,0.167
11,CGAATTGA,-0.0841
12,AAGATGGT,0.00507
13,ACAGGACT,-0.129
14,GATAGATA,-0.0809
15,GATCAGGA,-0.216
16,GTCGCTCA,-0.00948
17,AAGGCGGG,-0.112
18,CTCAGCCC,-0.157
19,CATTCTCC,-0.128
20,AGCTACGA,-0.115
21,TCCATCCA,-0.215
22,TCCTTCAA,0.174
23,ACGATGTG,0.169
24,CGCGTGTA,0.375
25,ACGCGTCG,0.137

row,Sequence,PBM E-score
1,CGATTTTC,-0.0214
2,AGATCTGA,-0.112
3,TCTGTACA,0.235
4,CCTAGTCC,0.0607
5,AGACTTCC,-0.275
6,AGGAATGG,-0.0291
7,GATCATAC,-0.182
8,CGACCTAG,-0.142
9,AATACACC,0.271
10,GGCAGACA,-0.0237
11,GCCCCAAA,-0.0143
12,TCGCTTCA,-0.162
13,ATAACGTC,0.0563
14,GCTTGAAA,0.0632
15,GCGCTTCC,-0.0945
16,ACCGCAAG,-0.00025
17,CTTTGTCA,0.167
18,ATGTTCGA,0.0635
19,ATTGACTC,-0.183
20,GCTCGGTA,-0.0408
21,AGCATAAC,0.0259
22,TACGGATA,0.111
23,GTCAGGGA,-0.339
24,ACATGTGA,0.225
25,CTGTTGAC,0.131

row,Sequence,PBM E-score
1,CAGGGTGG,-0.258
2,ACTTTATA,0.148
3,ATACAAGC,0.262
4,CGACTGGC,-0.0734
5,GATGACCA,-0.0047
6,ATTCTACC,0.0703
7,CACATATC,-0.136
8,ATCTGAGA,-0.242
9,CAAAATAA,0.174
10,AGATACGC,-0.0544
11,ACGTCCTC,-0.117
12,GGGGATAC,-0.193
13,CAAGTCAC,0.0603
14,GAGCACCC,-0.331
15,ACAGTTTA,0.129
16,CAGATTTC,0.0166
17,GCGCACAC,-0.197
18,CGCAACGC,-0.0135
19,AACAAACG,0.236
20,GCTTCCTA,0.106
21,AGTCTGGA,-0.0866
22,CCTCGATA,0.0139
23,ATGAAAGC,0.103
24,CAGAGAAC,-0.0721
25,TTAGGGAA,0.0178

row,Sequence,PBM E-score
1,AGGCACGA,0.491
2,TCTCTACA,0.153
3,GCGGTCCC,-0.298
4,GGCTTTCA,-0.127
5,GTTTCACA,0.181
6,CGTTGGAG,-0.0165
7,CGGATTAC,0.151
8,CCTAGAGC,-0.102
9,CACGCCTA,0.0743
10,ACGCACAA,0.164
11,AGTCAAAG,-0.0859
12,AATGAAGG,0.167
13,GCCGCCCA,-0.226
14,GACTGCCA,-0.134
15,ACGTGCCC,0.261
16,CCTCATAC,-0.0676
17,TCAGTAAA,0.0673
18,CTCAAGAC,-0.131
19,ACCTATAG,0.175
20,AGGCCATG,0.043
21,GCAAAAAC,0.146
22,CATCTCCC,-0.294
23,CTCACCCC,-0.244
24,GTTAACTA,0.296
25,CGCCGCGA,-0.186

row,Sequence,PBM E-score
1,CGTCCCAA,-0.116
2,AACAAACC,-0.0229
3,CGACTGCA,-0.0903
4,AACCGACT,-0.268
5,ACAGATGC,-0.178
6,AGTGACTA,-0.0454
7,CCGTCTAA,-0.248
8,CTGTAAGA,0.0865
9,CAGTTCAG,-0.238
10,AAAATTAC,0.23
11,ATGAAAAT,0.0798
12,ATGGCCAC,-0.184
13,TAAGAGGA,-0.0308
14,GTTGAAAA,0.189
15,AAGGCGAG,-0.268
16,ATCGAATA,-0.058
17,AGCTGCCT,0.121
18,TAAATTCA,-0.0653
19,CCACCAGA,-0.121
20,GTACATCA,0.233
21,TCATATAA,0.0305
22,AGCTTTAG,-0.137
23,CCTTGGGC,-0.102
24,CTCTAGAA,-0.173
25,GGGAGAGA,-0.245

row,Sequence,PBM E-score
1,GTATGCAA,0.0241
2,ATAAACAT,0.225
3,GAATTGGC,-0.258
4,CTGAAGAA,-0.288
5,CTCACCAC,-0.215
6,TAACCTAA,0.155
7,AACCGGTA,-0.0951
8,ACCGTGTA,0.397
9,CAATCCAC,0.00999
10,TAAGCTGA,-0.0621
11,ACGTCGAG,0.0267
12,GAACGTGC,0.119
13,GAGAGTGC,-0.0903
14,ATATGAGA,0.0438
15,CCCATTAG,-0.216
16,ACTAATTG,-0.0933
17,GGCAAACA,0.28
18,CCAGATCC,-0.247
19,CGTGCAAA,0.0889
20,GTCGAAGA,-0.0789
21,GGGCACAA,0.0559
22,ACGGTCCG,-0.126
